The supplement of paper PMC4967469
Lines with a small IC50 respond at low doses; where the fit passes the top or lowest dose, that dose stands as a limit. AUC, from the same fit, is the share of area under the viability curve across the 256-fold dose range: 1 means no effect, lower means more sensitive. For part of these data: Where the top dose is marked as inferred, it was derived from the fitted curves, not read from the paper. For part of these data: Drugs with an entry number were screened twice under separate entries, and the two screens often disagree.

Legend:
Assay in all cases: Viability of human cancer cell lines after 72 h of drug (GDSC screen)
[1] = compound: COc1cc(N2CCC(N3CCN(C)CC3)CC2)ccc1Nc1ncc(Cl)c(Nc2ccccc2S(=O)(=O)C(C)C)n1 [NVP-TAE684]; details: top dose 2 µM
Procedure: (§1)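 Human cancer cell lines in 384-well plates, medium with 10% serum, drug for 72 h over a 256-fold dose range (nine 2-fold or five 4-fold steps up to the top dose). Adherent lines were fixed and stained with the nucleic acid dye Syto60, suspension lines read with resazurin; signal relative to control wells, capped at 0 and 100%. One two-parameter sigmoid per drug and line, fitted in a mixed model over all curves with the slope shared within a line.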

[2] = compound: OCCCNc1cc(-c2ccnc(Nc3cccc(Cl)c3)n2)ccn1 [CGP-60474]; details: top dose 0.256 µM; top dose inferred
Procedure: as §1

[3] = compound: CC(=O)O[C@@]12CO[C@@H]1C[C@H](O)[C@@]1(C)C(=O)[C@H](O)C3=C(C)[C@@H](OC(=O)[C@H](O)[C@@H](NC(=O)OC(C)(C)C)c4ccccc4)C[C@@](O)([C@@H](OC(=O)c4ccccc4)[C@H]21)C3(C)C [Docetaxel]; details: top dose 0.0125 µM
Procedure: as §1

[4] = compound: COC(=O)[C@H](CCSC)NC(=O)c1ccc(NC[C@@H](N)CS)cc1-c1ccccc1 [FTI-277]; details: top dose 1.024 µM; top dose inferred
Procedure: as §1

[5] = compound: CCOc1nc(NC(=O)Cc2cc(OC)ccc2OC)cc(N)c1C#N [JNK Inhibitor VIII]; details: top dose 10 µM; top dose inferred
Procedure: as §1

[6] = compound: O=C(/C=C/c1cccc(S(=O)(=O)Nc2ccccc2)c1)NO [Belinostat]; details: top dose 20 µM; top dose inferred
Procedure: as §1

[7] = compound: CN1CCN(c2ccc([N+](=O)[O-])c3no[n+]([O-])c23)CC1 [NSC-207895]; details: top dose 20 µM; top dose inferred
Procedure: as §1

[8] = compound: c1ccc2c(CCNc3ccc(Nc4ccncc4)cc3)c[nH]c2c1 [JNJ-26854165]; details: top dose 10 µM
Procedure: as §1

[9] = compound: C[C@]1(O)C[C@@H](c2nc(-c3ccc4ccc(-c5ccccc5)nc4c3)c3c(N)nccn32)C1 [OSI-906]; details: top dose 2.56 µM; top dose inferred
Procedure: as §1

[10] = compound: Cc1ccc(C(=O)N(CCCN)[C@@H](c2nc3cc(Cl)ccc3c(=O)n2Cc2ccccc2)C(C)C)cc1 [SB-715992]; details: top dose 0.128 µM; top dose inferred
Procedure: as §1

[11] = compound: COCC[n+]1c2c(n(Cc3cnccn3)c1C)C(=O)c1ccccc1C2=O [YM155]; details: top dose 5.12 µM
Procedure: as §1

[12] = compound: CC1=C2C[C@H]3[C@@H](CC=C4C[C@@H](O)CC[C@@]43C)[C@@H]2CC[C@]12O[C@@H]1C[C@H](C)CN[C@H]1[C@H]2C [Cyclopamine]; details: top dose 16 µM; top dose inferred
Procedure: as §1

[13] = compound: CC1(C)CNc2cc(NC(=O)c3cccnc3NCc3ccncc3)ccc21 [AMG-706]; details: top dose 2 µM; top dose inferred
Procedure: as §1

[14] = compound: Cc1sc2c(c1C)C(c1ccc(Cl)cc1)=N[C@@H](CC(=O)OC(C)(C)C)c1nnc(C)n1-2 [JQ1]
Procedure: as §1

[15] = top dose 1 µM, screen: GDSC drug entry 1218, top dose inferred
[16] = top dose 2.56 µM, screen: GDSC drug entry 163

| Cell Line | AUC [1] | IC50 [1] [nM] | AUC [2] | IC50 [2] [nM] | AUC [3] | IC50 [3] [nM] | AUC [4] | IC50 [4] [nM] | AUC [5] | IC50 [5] [nM] | AUC [6] | IC50 [6] [nM] | AUC [7] | IC50 [7] [nM] | AUC [8] | IC50 [8] [nM] | AUC [9] | IC50 [9] [nM] | AUC [10] | IC50 [10] [nM] | AUC [11] | IC50 [11] [nM] | AUC [12] | IC50 [12] [nM] | AUC [13] | IC50 [13] [nM] | AUC [14, 15] | IC50 [14, 15] [nM] | AUC [14, 16] | IC50 [14, 16] [nM] |
| --- | --- | --- | --- | --- | --- | --- | --- | --- | --- | --- | --- | --- | --- | --- | --- | --- | --- | --- | --- | --- | --- | --- | --- | --- | --- | --- | --- | --- | --- | --- |
| RXF393 (kidney, adherent) | 0.708 | 614 | 0.548 | 22.8 | 0.687 | 3.24 | 0.961 | > 1020 | 0.961 | > 10000 | 0.364 | 453 | 0.743 | 8320 | 0.782 | 6020 | 0.904 | > 2560 | 0.861 | > 128 | 0.052 | < 20 | 0.975 | > 16000 | 0.952 | > 2000 | 0.972 | > 1000 | 0.936 | > 2560 |
| SBC-1 (small cell lung carcinoma, suspension) | 0.985 | > 2000 | 0.941 | > 256 | 0.951 | > 12.5 | 0.97 | > 1020 | 0.989 | > 10000 | 0.262 | 270 | 0.684 | 4000 | 0.83 | 5950 | 0.973 | > 2560 | 0.988 | > 128 | 0.026 | < 20 | 0.989 | > 16000 | 0.988 | > 2000 | 0.751 | 318 | 0.913 | > 2560 |
| SF126 (glioma, adherent) | 0.78 | 869 | 0.744 | 83.5 | 0.852 | 10.5 | 0.96 | > 1020 | 0.974 | > 10000 | 0.417 | 729 | 0.982 | > 20000 | 0.912 | > 10000 | 0.949 | > 2560 | 0.895 | > 128 | 0.314 | 93.5 | 0.986 | > 16000 | 0.903 | > 2000 | 0.984 | > 1000 | 0.839 | 1880 |
| SF268 (glioma, adherent) | 0.775 | 857 | 0.628 | 37.1 | 0.652 | 2.14 | 0.955 | > 1020 | 0.957 | > 10000 | 0.278 | 277 | 0.518 | 1410 | 0.908 | > 10000 | 0.98 | > 2560 | 0.775 | 54.5 | 0.14 | 21.1 | 0.956 | > 16000 | 0.922 | > 2000 | 0.982 | > 1000 | 0.887 | > 2560 |
